Publication PMC4336329 (PLoS ONE, 2015)
The campaign covered roughly 310,000 compounds. About 2,200 (0.71%) showed an effect of 50% or more. The effect is printed as a negative number. The list shows a part of the results.

target: human ether-à-go-go-related gene (hERG) potassium channel (human, UniProt Q12809); assay: primary screen, population patch clamp on CHO cells stably expressing hERG
Sequence (Q12809 whole entry, looked up): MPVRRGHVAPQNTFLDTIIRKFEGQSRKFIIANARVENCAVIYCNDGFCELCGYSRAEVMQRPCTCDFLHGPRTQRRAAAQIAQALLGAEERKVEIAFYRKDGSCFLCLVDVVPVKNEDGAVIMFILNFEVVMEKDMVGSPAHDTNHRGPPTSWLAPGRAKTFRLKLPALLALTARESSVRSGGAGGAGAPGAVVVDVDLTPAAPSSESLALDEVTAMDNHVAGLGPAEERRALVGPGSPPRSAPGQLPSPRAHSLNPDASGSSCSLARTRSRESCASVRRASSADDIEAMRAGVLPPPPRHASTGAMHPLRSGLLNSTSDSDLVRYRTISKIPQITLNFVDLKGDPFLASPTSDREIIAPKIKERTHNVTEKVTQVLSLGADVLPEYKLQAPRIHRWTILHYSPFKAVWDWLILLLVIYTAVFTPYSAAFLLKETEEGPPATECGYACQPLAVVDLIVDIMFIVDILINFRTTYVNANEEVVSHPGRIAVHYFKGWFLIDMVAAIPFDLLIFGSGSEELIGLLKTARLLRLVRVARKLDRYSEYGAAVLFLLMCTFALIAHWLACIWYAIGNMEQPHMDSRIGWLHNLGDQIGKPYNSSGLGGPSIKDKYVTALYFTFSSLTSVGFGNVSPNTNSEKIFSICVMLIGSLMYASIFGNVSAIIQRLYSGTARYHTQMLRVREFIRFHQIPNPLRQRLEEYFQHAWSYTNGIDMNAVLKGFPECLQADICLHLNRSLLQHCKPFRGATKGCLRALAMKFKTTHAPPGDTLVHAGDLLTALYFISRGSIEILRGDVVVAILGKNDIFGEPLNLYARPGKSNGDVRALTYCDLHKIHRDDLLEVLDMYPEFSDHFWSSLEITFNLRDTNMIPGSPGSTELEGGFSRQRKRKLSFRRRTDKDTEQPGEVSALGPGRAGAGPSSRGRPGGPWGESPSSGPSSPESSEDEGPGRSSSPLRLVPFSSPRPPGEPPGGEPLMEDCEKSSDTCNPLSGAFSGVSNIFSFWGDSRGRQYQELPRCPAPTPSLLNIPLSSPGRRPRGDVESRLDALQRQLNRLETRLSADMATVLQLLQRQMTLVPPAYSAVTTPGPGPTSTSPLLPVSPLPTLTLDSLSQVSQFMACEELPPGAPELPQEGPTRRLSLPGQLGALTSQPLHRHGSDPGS

Structure (SMILES)	hERG current change (%, negative = inhibition) at 1uM
CCOc1ccccc1/C=C(/NC(=O)c1ccccc1)C(=O)NC(C)c1ccccc1 (stereo not drawn)	-4.29%
CC(C)c1ccc2c(c1)C1(NN=C(c3ccccc3)S1)C(=O)N2 (stereo not drawn)	7.95%
CCn1c(/C=C/c2c(C)[nH]c3ccccc23)nc2ccccc2c1=O	2.62%
Cc1c(Cl)cccc1NS(=O)(=O)c1ccc2c(c1)C1C=CCC1C(c1ccc(C(=O)O)cc1)N2 (stereo not drawn)	19.9%
O=S(=O)(Nc1nc2ccccc2[nH]1)c1ccc2ccccc2c1	4.26%
Cc1nn(-c2cccc([N+](=O)[O-])c2)c(N)c1-c1ccccc1	-5.64%
C=C1C(=O)O[C@@H]2C[C@@H](C)[C@@H]3C4OC4C(=O)[C@@]3(C)[C@@H](O)[C@H]12 (stereo partly drawn)	4.34%
O=C(/C=C/c1ccco1)NCCc1ccc(F)cc1	13.2%
O=C(c1cnn2c(C(F)F)cc(C3CC3)nc12)N1CCOCC1	7.49%
CN1CCN(C(=O)CN2C(=O)CC(C)(C)S(=O)(=O)c3ccccc32)CC1	15.7%
O=C(Nc1ccccc1C(=O)N1CCCCC1)NC1CCCCC1	7.82%
CC1Oc2ccccc2C=C1/C=N/Nc1ccc(C(=O)O)cc1 (stereo not drawn)	7.72%
O=C(Cc1ccc([N+](=O)[O-])cc1)NNC(=O)c1ccc2c(c1)OCO2	6.28%
CCc1cccc(C)c1N1C(=O)CC(C)(C)CC1=O	13.1%
CCc1cccc2c1NC(=O)C21OCCO1	15%
CCOc1ccc2[nH]c(C(=O)N/N=C/c3ccccc3OC)cc2c1	32.1%
C#CCN1C(=O)S/C(=C\c2ccc(-c3ccc(C(=O)O)cc3C)o2)C1=O	14.2%
Cc1ccc(C)c(N2CCN(C(=S)NC3CCCCC3)CC2)c1	3.11%
C/C(=N\OC(=O)c1cccc(C(F)(F)F)c1)c1sc(-c2ccccc2)nc1C	13.1%
O=C(c1ccc(F)cc1)c1c[nH]c(C(=O)NCCCN2CCOCC2)c1	10.4%
O=C(O)CC1(CC(=O)NCc2ccccn2)CCCCC1	11.4%
COc1ccccc1C(NC(C)=O)c1cc(Cl)c2cccnc2c1O (stereo not drawn)	10.7%

Structure (SMILES)	hERG current change (%, negative = inhibition) at 1uM
O=C(O)c1ccc(NC(=S)NC(=O)c2ccc3ccccc3c2)cc1	-4.32%
CCCCn1c(N)c(N(CCOC)C(=O)c2cccc(S(=O)(=O)N3CCCCC3)c2)c(=O)[nH]c1=O	18.2%
CN1C(=O)CC(c2cn(Cc3ccccc3)c3ccccc23)C1=O (stereo not drawn)	4.03%
COC(=O)C1=C(C(=O)OC)[C@@H]2N(C)c3ccc(OC)cc3[C@@]23C[C@@H](C(=O)OC)N(C(=O)c2ccco2)C3=N1	-0.967%
C/C=C/c1ccc(OCCN2C(=O)NC(C)(C)C2=O)c(OC)c1	9.17%
O=P(COc1ccccc1)(c1ccccc1)c1ccccc1	-4.86%
CC(C)c1cc(C(N)=O)c(NC(=O)c2cccc(COc3ccc(Br)cc3)c2)s1	19%
O=C(Nc1ccc(Br)cc1)c1ccc2c(c1)OCO2	11.3%
O=C(CNC(=O)[C@@H]1Cc2ccccc2CN1)NCc1ccco1	12.3%
CNc1oc(-c2cccs2)nc1C#N	0.194%
CCOC(=O)c1cc(C#N)c(Oc2ccc(F)cc2)nc1-c1ccccc1	13.6%
Cc1cc(OC(=O)c2ccc(C)c(C)c2)c([N+](=O)[O-])c(=O)[nH]1	15.8%
CNC(=O)NC(=O)C(C)OC(=O)c1cc2c(s1)CCCCC2 (stereo not drawn)	-11.3%
C/C(=N/NC(=O)CNC(=O)C1COc2ccccc2O1)c1cccc(O)c1 (stereo not drawn)	8.79%
CC(C)Oc1cccc(C(=O)C2CCCN(C(=O)c3ccc4c(c3)OCO4)C2)c1 (stereo not drawn)	9.61%
O=C(NCCCNC(=O)c1cnccn1)c1cccc(F)c1	18.6%
CCOc1ccc(C(=O)Nc2ccc3[nH]ncc3c2)cc1	20.8%
CC(C)N1C(=O)/C(=C/C=C/c2ccco2)C(=O)N(Cc2ccco2)C1=O	13.3%
COc1cc(NC(=O)c2ccc3c(c2)C(=O)N(CCC(C)C)C3=O)c(C(=O)O)cc1OC	16%
Cc1cc(Cl)ccc1C(=O)C1CCCN(C2CCSCC2)C1 (stereo not drawn)	-49.3%
CCOc1ccccc1NC(=O)Cn1c(=O)c(OCC)nc2cnccc21	11.4%
Cc1nc(SCc2ccc(C(=O)O)cc2)c2c(C)c(C)sc2n1	-3.11%

Structure (SMILES)	hERG current change (%, negative = inhibition) at 1uM
CCOc1ccc(NC(=O)CN(c2ccc(OCC)cc2)S(=O)(=O)c2c(C)[nH]c(=O)[nH]c2=O)cc1	13.4%
CCC1CCc2c(sc(NC(C)=O)c2C#N)C1 (stereo not drawn)	8.69%
CCN(CC)S(=O)(=O)c1ccc(OC)c(NC(=O)CSc2cc(C)ccc2C)c1	11%
Cn1c(N)c(C(=O)CSc2nc(C3CC3)n(-c3ccccc3)n2)c(=O)[nH]c1=O	5.72%
CC1C(=O)N(Cc2ccc(F)cc2)c2ccccc2N1C(=O)c1c(F)cccc1F (stereo not drawn)	15.7%
Cn1c(=S)ccc2ccccc21	12.3%
CN(C)c1nc(Oc2ccc(=O)[nH]n2)nc(N2CCCCC2)n1	5.54%
COC(=O)/C(=C\c1ccc2c(c1)c1ccccc1n2C)NC(=O)c1ccccc1	-7.88%
Cc1nnc(SCC(=O)N(Cc2ccccc2)C(C)(C)C)[nH]c1=O	15%
Cn1nnc2cc(C(=O)Nc3ccc(Cl)cc3)ccc21	9.5%
COc1cccc(C2CC(=O)Nc3cc4c(cc32)OCCO4)c1OC(C)C (stereo not drawn)	16.8%
O=C(c1ccc2nc(-c3ccco3)c(-c3ccco3)nc2c1)N1CCN(c2ccccc2)CC1	-5.7%
Cc1ccc(S(=O)(=O)N2CCC(C(=O)O)CC2)cc1C(=O)O	10.5%
NC(=O)c1ccc(-c2ccccc2F)cc1	3.79%
CCOc1ccc(NC(=O)CN2C(=O)c3ccccc3C2=O)cc1	10.5%
Cc1ccccc1N1CC(=O)Nc2c(oc3nc(-c4ccccc4)cc(C)c23)C1=O	10.4%
CC(=O)N1c2ccc(S(=O)(=O)NCC3CCC(C(=O)NC4CCC(C)CC4)CC3)cc2CC1C (stereo not drawn)	11.1%
Cc1nn(C(C)c2nc(-c3ccccc3)no2)c(C)c1[N+](=O)[O-] (stereo not drawn)	-10.1%
COc1ccccc1C(=O)NCCN1CCN(c2ccccc2)CC1.Cl	12.5%
COC(=O)c1oc2ccc(Cl)cc2c1N	9.5%
N#Cc1nc(Cc2ccccc2)oc1N1CCN(c2cccc(Cl)c2)CC1	10.2%
COc1cc2c(cc1OC)C(=O)NCC(C)(C)O2	2.17%

Structure (SMILES)	hERG current change (%, negative = inhibition) at 1uM
CCc1nc(Nc2ccc(O)cc2)c2oc3ccccc3c2n1.Cl	8.58%
O=C(CCS(=O)(=O)c1ccc(Br)s1)NC1CCCCCC1	14.1%
COCCCNC(=O)c1c(N)n(-c2cccc(S(N)(=O)=O)c2)c2nc3ccccc3nc12	14.3%
Cc1ccc(CN2CC(C(=O)N3CCN(S(=O)(=O)c4c(F)cccc4F)CC3)CC2=O)cc1 (stereo not drawn)	9.3%
COc1ccccc1CN(C)C(=O)c1cccc(S(=O)(=O)N2CCc3ccccc3C2)c1	5.01%
CCOC(=O)N1CCC(NC(=O)CC2C(=O)NCCN2Cc2ccc(C)cc2)CC1 (stereo not drawn)	-7.97%
O=C(Nn1cnc2ccccc2c1=O)c1ccc([N+](=O)[O-])cc1	10.7%
COc1ccc(C(=O)/C=C/c2cn(CN3CCN(C)CC3)c3ccccc23)cc1	-3.29%
CCC(C)(C)NC(=O)CN(C(=O)CCC(=O)Nc1nccs1)c1ccc(C)cc1	8.06%
Cc1cc(OCC(=O)N2CCN(c3ccc(F)cc3)CC2)c2c(C)cc(=O)oc2c1	15.7%
Cc1c(NC(=O)CN2C(=O)C(=O)c3ccccc32)c(=O)n(-c2ccccc2)n1C	8.8%
CCOC(=O)c1sc(=S)n(-c2cc(F)ccc2F)c1N	7.7%
Cc1cc(C(=O)CN2C(=O)NC3(CCCc4sccc43)C2=O)c(C)n1-c1ccccc1 (stereo not drawn)	13.2%
CC(/C=C/c1ccc2c(c1)OCO2)=N\NC(=O)C(O)c1ccccc1 (stereo not drawn)	18.4%
C[C@H](NC(=O)OC(C)(C)C)C(=O)N/N=C/c1ccc2nccnc2c1	18%
CC(C)c1ccc(-c2nc(N3CCCC3)nc3n[nH]c(N)c23)cc1	7.84%
COC(=O)c1c(NC(=O)CC2SC(N)=NC2=O)sc(C)c1C (stereo not drawn)	12%
COC(=O)CCC(=O)OC1(C)C(=O)C=C2C=C(C3CC3)N(c3ccc(CO)cc3)C=C2C1=O (stereo not drawn)	20.2%
CC(=O)n1cc(C(C[N+](=O)[O-])SCCN)c2ccccc21.Cl (stereo not drawn)	10.7%
Cc1ccc(CNS(=O)(=O)c2ccc3c(c2)CCN3C(=O)C2CCC2)cc1	11.9%
NC(=O)Cc1ccc(C(=O)c2ccc(Cl)cc2Cl)s1	11.9%
